# In all, about 230,000 compounds went through this assay and about 3,600 (1.6%) were called active. Inconclusive results, whose numbers are uncertain, are shown with a selection of clear calls. The call rests on the fitted dose curve; in most records, active means well fitted inhibition curve with a large enough effect (not every such curve was filed as active); inconclusive means small, poorly fitted or top-dose-only effect, or another doubt; inactive means no such curve, though single readings can be large or run the other way. Potencies beside an inconclusive call are fits to weak or partial responses and may not hold up.
# Biological target: Lysine-specific demethylase 4E (Homo sapiens) (UniProt B2RXH2)
# UniProt B2RXH2, sequence (B2RXH2 whole entry, looked up, the tested form may be a part): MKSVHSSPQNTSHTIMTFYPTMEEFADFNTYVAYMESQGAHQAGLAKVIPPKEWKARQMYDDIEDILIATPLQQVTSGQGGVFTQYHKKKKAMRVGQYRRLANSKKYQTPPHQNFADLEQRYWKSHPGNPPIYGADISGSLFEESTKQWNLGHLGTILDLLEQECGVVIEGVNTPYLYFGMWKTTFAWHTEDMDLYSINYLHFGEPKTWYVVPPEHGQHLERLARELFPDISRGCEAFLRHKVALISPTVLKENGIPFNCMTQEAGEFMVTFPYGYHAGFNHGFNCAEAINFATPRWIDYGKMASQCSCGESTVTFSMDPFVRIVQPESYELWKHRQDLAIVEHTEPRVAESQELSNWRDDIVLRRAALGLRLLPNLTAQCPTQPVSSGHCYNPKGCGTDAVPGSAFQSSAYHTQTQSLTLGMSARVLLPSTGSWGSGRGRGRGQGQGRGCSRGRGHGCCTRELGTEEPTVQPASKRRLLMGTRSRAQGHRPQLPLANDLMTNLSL
# Assay: qHTS Assay for Inhibitors of Human Jumonji Domain Containing 2E (JMJD2E)
# Details: JMJD2E catalytic domain, FDH-coupled NADH fluorescence (FDH is formaldehyde dehydrogenase); series mostly up to 57.1 µM
# Further: nearly all actives have a fitted effect of over 50% in size.
# Potency means the concentration at half of the fitted maximal effect; tags describe the fitted curve by direction and shape.
row,SMILES,Potency
1,CC(C)(C)OC(=O)N1CCC(c2cc(=O)n3[nH]cc(C(=O)NC4CCCC4)c3n2)CC1,"inconclusive: 28.2 µM [inhibitor, partial curve]"
2,CC(C)Cn1c([N+](=O)[O-])nc2c1c(=O)[nH]c(=O)n2C,"inconclusive: 31.6 µM [inhibitor, single point]"
3,CCN(CC)c1ccc(/C=N/NC(=O)c2cnccn2)c(O)c1,active: 10 µM
4,CC(=O)N1CCn2c3c(c4cc(C)ccc42)CCCC31 (centres undefined),"inconclusive: 31.6 µM [inhibitor, partial curve]"
5,COc1cccc(/C=N/NC(=S)NCc2ccco2)c1OC,"inconclusive: 35.5 µM [inhibitor, single point]"
6,COc1cc(C(=O)NCC(=O)OCc2ccccc2Cl)cc(OC)c1OC,inactive
7,COCc1cc(C)n(CC(=O)NCc2ccccc2)c(=O)c1C#N,"inconclusive: 31.6 µM [inhibitor, partial curve]"
8,N#Cc1c(C(F)(F)F)cc(-c2ccco2)nc1SCc1ccccn1,"inconclusive: 15.8 µM [inhibitor, partial curve]"
9,O=C(Nc1ccccc1)Nc1cccc2ccccc12,"inconclusive: 22.4 µM [inhibitor, single point]"
10,CCOC(=O)CCCSc1nnc(CCCCCN2C(=O)c3cccc4cccc(c34)C2=O)o1,inactive
11,CCn1c(SCC(=O)N/N=C/c2ccc(C)o2)nnc1-c1ccccc1,inactive
12,O=C(Nc1cccc2ccccc12)c1ccc(OC(=S)N2CCOCC2)cc1,"inconclusive: 28.2 µM [inhibitor, single point]"
13,CN(C)CCCN(Cc1cc2cc3c(cc2[nH]c1=O)OCO3)C(=S)NCc1ccco1,"inconclusive: 31.6 µM [inhibitor, partial curve]"
14,NC(=O)c1ccc(-c2nc(-c3ccc4c(c3)OCO4)c(-c3ccccn3)[nH]2)cc1,"inconclusive: 20 µM [inhibitor, partial curve]"
15,CC(C)C(=O)N(Cc1cc2ccccc2[nH]c1=O)C(C)C,"inconclusive: 39.8 µM [inhibitor, single point]"
16,O=[N+]([O-])/C(C=Nc1ccccc1O)=C\Nc1ccccc1O,active: 12.6 µM
17,Cc1cc(NCCN(C)C)n2nc(-c3cccs3)cc2n1,"inconclusive: 25.1 µM [inhibitor, partial curve]"
18,COc1cc(OC)c(/C=N/NC(N)=S)cc1Br,"inconclusive: 35.5 µM [inhibitor, single point]"
19,C=CCOc1c(Br)cc(CNn2cn[nH]c2=S)cc1OC,inactive
20,N#Cc1nc(-c2ccco2)oc1NCCc1ccccc1,"inconclusive: 28.2 µM [inhibitor, partial curve]"
21,Cc1ccc2cccc(SCC(=O)NCC#N)c2n1,"inconclusive: 28.2 µM [inhibitor, partial curve]"
22,COc1ccc(-c2cc(-c3cc(OC)ccc3O)[nH]n2)cc1,"inconclusive: 39.8 µM [inhibitor, single point]"
23,COC(=O)[C@H](Cc1ccccc1)NC(=O)N1CCN(c2ccc(F)cc2)CC1,"inconclusive: 39.8 µM [inhibitor, single point]"

row,SMILES,Potency
1,CCN(CC)S(=O)(=O)c1cccc(-c2n[nH]c(=S)n2C(C)COC)c1 (centres undefined),inactive
2,COC(=O)NNC(=S)Nc1cc(OC)ccc1OC,inactive
3,Fc1ccccc1C1c2cccn2CCN1C(=S)Nc1cccc(Br)c1 (centres undefined),"inconclusive: 25.1 µM [inhibitor, single point]"
4,C/C=C/c1ccc(OCCN2C(=O)NC(C)(C)C2=O)c(OC)c1,"inconclusive: 39.8 µM [inhibitor, single point]"
5,CCOC(=O)c1oc2ccccc2c1NC(=O)c1cc(OC)cc(OC)c1,"inconclusive: 35.5 µM [inhibitor, single point]"
6,O=C(O)c1ccccc1C(=O)NCC(O)c1ccccc1 (centres undefined),"inconclusive: 20 µM [inhibitor, single point]"
7,CCOc1ccc2nc3c(cc2c1)CN(CCCO)C(=NCCOC)S3,"inconclusive: 39.8 µM [inhibitor, single point]"
8,CC1CCCCC1NC(=O)c1ccc(S(=O)(=O)NCC2CCCO2)cc1 (centres undefined),"inconclusive: 39.8 µM [inhibitor, single point]"
9,Cc1[nH]nc2c1C(c1ccsc1)C1=C(CC(C)(C)CC1=O)N2 (centres undefined),"inconclusive: 11.2 µM [inhibitor, partial curve]"
10,Cc1ccc(-n2[nH]c(C)c(C=Nc3cc(C)ccn3)c2=O)cc1,"inconclusive: 39.8 µM [inhibitor, single point]"
11,Cc1cc(NC(=O)CSc2nc3cc(Cl)ccc3s2)no1,inactive
12,CN1C(=O)C(CC(=O)Nc2ccc(Cl)cc2)N(Cc2ccco2)C1=S (centres undefined),inactive
13,Cc1cccc2cc(COC(=O)c3cccnc3)c(=O)[nH]c12,"inconclusive: 39.8 µM [inhibitor, single point]"
14,O=C(CN1C(=O)c2ccccc2C1=O)Nc1cc([N+](=O)[O-])ccc1O,"inconclusive: 39.8 µM [inhibitor, single point]"
15,CCOc1ccc(-n2c(O)c(/C=N/NC(=O)C3COc4ccccc4O3)c3ccccc3c2=O)cc1 (centres undefined),"inconclusive: 12.6 µM [inhibitor, partial curve]"
16,O=C(NNS(=O)(=O)c1ccc(Cl)cc1)c1cccc(S(=O)(=O)N2CCOCC2)c1,inactive
17,CCOC(=O)CCc1c(C)nc2cc(-c3ccc(Cl)cc3)[nH]n2c1=O,"inconclusive: 8.91 µM [inhibitor, partial curve]"
18,O=C(Nc1ccc(C(O)(C(F)(F)F)C(F)(F)F)cc1)c1ccc(Cl)c([N+](=O)[O-])c1,inactive
19,COc1ccc(CCn2c(-c3ccco3)nc3nc4ccccc4nc32)cc1OC,"inconclusive: 35.5 µM [inhibitor, single point]"
20,CCOC(=O)N1CCC(N2CCN(S(=O)(=O)c3ccc4ccccc4c3)CC2)CC1,"inconclusive: 39.8 µM [inhibitor, single point]"
21,Cc1onc(-c2ccccc2Cl)c1C(=O)Nc1sc2c(c1C(N)=O)CCC(C)C2 (centres undefined),"inconclusive: 35.5 µM [inhibitor, single point]"
22,Cc1c(-n2c(SCC(C)C)nc3ccccc3c2=O)c(=O)n(-c2ccccc2)n1C,inactive
23,CC(NC(=O)Nc1ccc([N+](=O)[O-])cc1)C(c1ccccc1)N1CCOCC1 (centres undefined),"inconclusive: 14.1 µM [inhibitor, single point]"

row,SMILES,Potency
1,O=C(NC1CCCC1)c1ccc2nc[nH]c2c1,inactive
2,CC(C)n1c(N)c(C#N)c2ccc([N+](=O)[O-])cc2c1=O,inactive
3,Cc1ccc(C(=O)Nc2cccc(S(=O)(=O)N3CCOCC3)c2)cc1[N+](=O)[O-],inactive
4,O=C(N/N=C/c1c(Nc2cccc(C(F)(F)F)c2)nc2ccccn2c1=O)c1ccccc1,inactive
5,O=C(N/N=C/c1cccc(Cl)c1)C(c1ccncc1)N1CCOCC1 (centres undefined),inactive
6,COc1ccc(CN2C(=O)/C(=C/c3ccncc3)SC2=S)cc1,"inconclusive: 14.1 µM [inhibitor, partial curve]"
7,O=C(CSc1nnc(-c2ccccc2O)n1Cc1ccccc1)NNC(=O)c1ccccc1O,"inconclusive: 28.2 µM [inhibitor, single point]"
8,CCOc1cc(C)c(C(C)C)cc1S(=O)(=O)n1cnc(C)c1,inactive
9,O=S1(=O)c2cccc3cccc(c23)N1Cc1nnc(-c2ccccc2Br)o1,"inconclusive: 39.8 µM [inhibitor, single point]"
10,CCCCSc1nnc(C)c(=O)[nH]1,"inconclusive: 35.5 µM [inhibitor, single point]"
11,COc1ccccc1/C=C/CN1CCN(c2ccccc2)CC1,"inconclusive: 20 µM [inhibitor, single point]"
12,O=C(O)c1ccc2c(c1)N(Cc1ccc(F)cc1)C(=O)c1ccccc1S2,inactive
13,COc1ccc(-c2nc(N)c(C#N)c(-c3cccnc3)c2C)cc1,"inconclusive: 35.5 µM [inhibitor, single point]"
14,COc1ccc(OC)c(CCNC(=O)CS(=O)(=O)Cc2nc(-c3ccc(C)cc3)oc2C)c1,"inconclusive: 39.8 µM [inhibitor, single point]"
15,COc1cc2c(cc1OC)C(C(=O)c1ccc(OC)c(OC)c1O)=NCC2,"inconclusive: 35.5 µM [inhibitor, single point]"
16,COc1ccc(C(=O)N/N=C/c2sc(=O)n(Cc3cccc(C(=O)O)c3)c2Cl)cc1,"inconclusive: 39.8 µM [inhibitor, single point]"
17,CCCC1=NN2C(=N)/C(=C\c3ccc(SCc4ccco4)o3)C(=O)N=C2S1,"inconclusive: 14.1 µM [inhibitor, partial curve]"
18,COc1cc(/C=C/C(=O)O)ccc1O,"inconclusive: 28.2 µM [inhibitor, single point]"
19,Cc1cc(NCc2ccco2)nc2cc(O)ccc12,"inconclusive: 28.2 µM [inhibitor, partial curve]"
20,CCOC(=O)N1CCN(C(=O)c2ccc3nc4ccc(Cl)cc4c(=O)n3c2)CC1,"inconclusive: 3.55 µM [inhibitor, full curve]"
21,CC(C)CC(C(=O)NC1CCCCC1)N(Cc1cccs1)C(=O)c1snc(C(N)=O)c1N (centres undefined),"inconclusive: 39.8 µM [inhibitor, single point]"
22,Cc1ccc(-n2c(SCC(=O)NCc3ccco3)nc3nc4c(cc3c2=O)COC(C)(C)C4)cc1,"inconclusive: 28.2 µM [inhibitor, partial curve]"
23,CCNc1nc(C)c(CN(C(C)=O)c2ccccc2)nc1C#N,"inconclusive: 20 µM [inhibitor, partial curve]"
